Some of the results follow.
Experiments:
Test in all cases: glycan array binding signal (z-score within array); higher = stronger binding
Settings in all cases: glycan notation: IUPAC condensed, linker removed
[1] = biological target: Neu5Ac(a2-6)GlcNAc(b1-4)GlcNAc(b1-4)GlcNAc
Method in brief: (§1)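 Arrays were curated from the Consortium for Functional Glycomics database, 3228 in total, and kept only where the protein sequence was available. Binding is expressed as a within-array Z-score. This score was averaged across arrays of the same protein sequence at different concentrations or buffers and across linkers, and negative values can be read as non-binding.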

Neu5Ac(a2-8)Neu5Ac = biological target: Neu5Ac(a2-8)Neu5Ac
Method in brief: as §1

[2] = biological target: Neu5Ac(a2-8)Neu5Ac(a2-3)Gal(b1-3)GalNAc(b1-4)[Neu5Ac(a2-3)]Gal(b1-4)Glc
Method in brief: as §1

[3] = biological target: Neu5Ac(a2-8)Neu5Ac(a2-3)Gal(b1-3)GalNAc(b1-4)[Neu5Ac(a2-8)Neu5Ac(a2-3)]Gal(b1-4)Glc
Method in brief: as §1

[4] = biological target: Neu5Ac(a2-8)Neu5Ac(a2-3)Gal(b1-4)Glc
Method in brief: as §1

[5] = biological target: Neu5Ac(a2-8)Neu5Ac(a2-3)Gal(b1-4)GlcNAc
Method in brief: as §1

[6] = biological target: Neu5Ac(a2-8)Neu5Ac(a2-3)[Gal(b1-3)GalNAc(b1-4)]Gal(b1-4)Glc
Method in brief: as §1

[7] = biological target: Neu5Ac(a2-8)Neu5Ac(a2-3)[GalNAc(b1-4)]Gal(b1-4)Glc
Method in brief: as §1

[8] = biological target: Neu5Ac(a2-8)Neu5Ac(a2-8)Neu5Ac
Method in brief: as §1

[9] = biological target: Neu5Ac(a2-8)Neu5Ac(a2-8)Neu5Ac(a2-3)Gal(b1-4)Glc
Method in brief: as §1

[10] = biological target: Neu5Ac(a2-8)Neu5Ac(a2-8)Neu5Ac(a2-3)[Gal(b1-3)GalNAc(b1-4)]Gal(b1-4)Glc
Method in brief: as §1

[11] = biological target: Neu5Ac(a2-8)Neu5Ac(a2-8)Neu5Ac(a2-3)[GalNAc(b1-4)]Gal(b1-4)Glc
Method in brief: as §1

[12] = biological target: Neu5Ac(a2-8)Neu5Ac(a2-8)Neu5Ac(a2-8)Neu5Ac(a2-3)[GalNAc(b1-4)]Gal(b1-4)Glc
Method in brief: as §1

[13] = biological target: Neu5Ac(a2-8)Neu5Gc(a2-3)Gal(b1-4)GlcNAc
Method in brief: as §1

[14] = biological target: Neu5Ac(b2-6)Gal(b1-4)GlcNAc
Method in brief: as §1

Neu5Ac(b2-6)GalNAc = biological target: Neu5Ac(b2-6)GalNAc
Method in brief: as §1

[15] = biological target: Neu5Ac9Ac(a2-3)Gal(b1-3)GlcNAc
Method in brief: as §1

[16] = biological target: Neu5Ac9Ac(a2-3)Gal(b1-4)GlcNAc
Method in brief: as §1

[17] = biological target: Neu5Ac9Ac(a2-6)Gal(b1-4)GlcNAc
Method in brief: as §1

[18] = biological target: Neu5Gc(a2-3)Gal(b1-3)GlcNAc
Method in brief: as §1

[19] = biological target: Neu5Gc(a2-3)Gal(b1-3)[Fuc(a1-4)]GlcNAc
Method in brief: as §1

Neu5Gc(a2-3)Gal(b1-4)Glc = biological target: Neu5Gc(a2-3)Gal(b1-4)Glc
Method in brief: as §1

[20] = biological target: Neu5Gc(a2-3)Gal(b1-4)GlcNAc
Method in brief: as §1

[21] = biological target: Neu5Gc(a2-3)Gal(b1-4)GlcNAc(b1-3)Gal(b1-4)GlcNAc(b1-2)Man(a1-3)[Neu5Gc(a2-3)Gal(b1-4)GlcNAc(b1-3)Gal(b1-4)GlcNAc(b1-2)Man(a1-6)]Man(b1-4)GlcNAc(b1-4)GlcNAc
Method in brief: as §1

[22] = biological target: Neu5Gc(a2-3)Gal(b1-4)[Fuc(a1-3)]GlcNAc
Method in brief: as §1

[23] = biological target: Neu5Gc(a2-6)Gal(b1-4)GlcNAc
Method in brief: as §1

Neu5Gc(a2-6)GalNAc = biological target: Neu5Gc(a2-6)GalNAc
Method in brief: as §1

[24] = biological target: Neu5Gc(a2-8)Neu5Ac(a2-3)Gal(b1-4)GlcNAc
Method in brief: as §1

[25] = biological target: Neu5Gc(a2-8)Neu5Gc(a2-3)Gal(b1-4)GlcNAc
Method in brief: as §1

[26] = biological target: Neu5Gc(a2-8)Neu5Gc(a2-3)Gal(b1-4)GlcNAc(b1-3)Gal(b1-4)GlcNAc
Method in brief: as §1

[27] = biological target: Neu5Gc(a2-8)Neu5Gc(a2-6)Gal(b1-4)GlcNAc
Method in brief: as §1

[28] = biological target: Neu5Gc(b2-6)Gal(b1-4)GlcNAc
Method in brief: as §1

B1: Clec18C (Homo sapiens) (protein)
chain: MLHPETSPGRGHLLAVLLALLGTAWAEVWPPQLQEQAPMAGALNRKESFLLLSLHNRLRSWVQPPAADMRRLDWSDSLAQLAQARAALCGTPTPSLASGLWRTLQVGWNMQLLPAGLVSFVEVVSLWFAEGQRYSHAAGECARNATCTHYTQLVWATSSQLGCGRHLCSAGQAAIEAFVCAYSPRGNWEVNGKTIVPYKKGAWCSLCTASVSGCFKAWDHAGGLCEVPRNPCRMSCQNHGRLNISTCHCHCPPGYTGRYCQVRCSLQCVHGRLREEECSCVCDIGYGGAQCATKVHFPFHTCDLRIDGDCFMVSSEADTYYRARMKCQRKGGVLAQIKSQKVQDILAFYLGRLETTNEVIDSDFETRNFWIGLTYKTAKDSFRWATGEHQAFTSFAFGQPDNHGFGNCVELQASAAFNWNNQRCKTRNRYICQFAQEHISRWGPGS
glycan array binding signal (z-score) [1]: -0.581 | glycan array binding signal (z-score) (Neu5Ac(a2-8)Neu5Ac): -0.454 | glycan array binding signal (z-score) [2]: -0.598 | glycan array binding signal (z-score) [3]: -0.323 | glycan array binding signal (z-score) [4]: -0.582 | glycan array binding signal (z-score) [5]: -0.498 | glycan array binding signal (z-score) [6]: 0.17 | glycan array binding signal (z-score) [7]: -0.481 | glycan array binding signal (z-score) [8]: -0.559 | glycan array binding signal (z-score) [9]: -0.499 | glycan array binding signal (z-score) [10]: -0.24 | glycan array binding signal (z-score) [11]: -0.493 | glycan array binding signal (z-score) [12]: -0.363 | glycan array binding signal (z-score) [13]: -0.583 | glycan array binding signal (z-score) [14]: -0.339 | glycan array binding signal (z-score) (Neu5Ac(b2-6)GalNAc): -0.343 | glycan array binding signal (z-score) [15]: -0.566 | glycan array binding signal (z-score) [16]: -0.565 | glycan array binding signal (z-score) [17]: -0.499 | glycan array binding signal (z-score) [18]: -0.606 | glycan array binding signal (z-score) [19]: -0.448 | glycan array binding signal (z-score) (Neu5Gc(a2-3)Gal(b1-4)Glc): -0.296 | glycan array binding signal (z-score) [20]: -0.549 | glycan array binding signal (z-score) [21]: -0.288 | glycan array binding signal (z-score) [22]: 0.57 | glycan array binding signal (z-score) [23]: -0.099 | glycan array binding signal (z-score) (Neu5Gc(a2-6)GalNAc): -0.265 | glycan array binding signal (z-score) [24]: 0.261 | glycan array binding signal (z-score) [25]: -0.62 | glycan array binding signal (z-score) [26]: -0.62 | glycan array binding signal (z-score) [27]: 0.623 | glycan array binding signal (z-score) [28]: -0.13
